Assay results reported in PMC4336329 (PLoS ONE, 2015).
Hit rate of the full screen: of about 310,000 compounds, about 14,000 (4.5%) showed an effect of 50% or more. Effects have a minus sign here. This is one part of the list.

Target: human ether-à-go-go-related gene (hERG) potassium channel (human, UniProt Q12809)
Experiment: primary screen, population patch clamp on CHO cells stably expressing hERG
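Note: peak tail current of the secondary pulse compared with the same well before compound.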

Sequence of human ether-à-go-go-related gene (hERG) potassium channel (Q12809 whole entry, looked up): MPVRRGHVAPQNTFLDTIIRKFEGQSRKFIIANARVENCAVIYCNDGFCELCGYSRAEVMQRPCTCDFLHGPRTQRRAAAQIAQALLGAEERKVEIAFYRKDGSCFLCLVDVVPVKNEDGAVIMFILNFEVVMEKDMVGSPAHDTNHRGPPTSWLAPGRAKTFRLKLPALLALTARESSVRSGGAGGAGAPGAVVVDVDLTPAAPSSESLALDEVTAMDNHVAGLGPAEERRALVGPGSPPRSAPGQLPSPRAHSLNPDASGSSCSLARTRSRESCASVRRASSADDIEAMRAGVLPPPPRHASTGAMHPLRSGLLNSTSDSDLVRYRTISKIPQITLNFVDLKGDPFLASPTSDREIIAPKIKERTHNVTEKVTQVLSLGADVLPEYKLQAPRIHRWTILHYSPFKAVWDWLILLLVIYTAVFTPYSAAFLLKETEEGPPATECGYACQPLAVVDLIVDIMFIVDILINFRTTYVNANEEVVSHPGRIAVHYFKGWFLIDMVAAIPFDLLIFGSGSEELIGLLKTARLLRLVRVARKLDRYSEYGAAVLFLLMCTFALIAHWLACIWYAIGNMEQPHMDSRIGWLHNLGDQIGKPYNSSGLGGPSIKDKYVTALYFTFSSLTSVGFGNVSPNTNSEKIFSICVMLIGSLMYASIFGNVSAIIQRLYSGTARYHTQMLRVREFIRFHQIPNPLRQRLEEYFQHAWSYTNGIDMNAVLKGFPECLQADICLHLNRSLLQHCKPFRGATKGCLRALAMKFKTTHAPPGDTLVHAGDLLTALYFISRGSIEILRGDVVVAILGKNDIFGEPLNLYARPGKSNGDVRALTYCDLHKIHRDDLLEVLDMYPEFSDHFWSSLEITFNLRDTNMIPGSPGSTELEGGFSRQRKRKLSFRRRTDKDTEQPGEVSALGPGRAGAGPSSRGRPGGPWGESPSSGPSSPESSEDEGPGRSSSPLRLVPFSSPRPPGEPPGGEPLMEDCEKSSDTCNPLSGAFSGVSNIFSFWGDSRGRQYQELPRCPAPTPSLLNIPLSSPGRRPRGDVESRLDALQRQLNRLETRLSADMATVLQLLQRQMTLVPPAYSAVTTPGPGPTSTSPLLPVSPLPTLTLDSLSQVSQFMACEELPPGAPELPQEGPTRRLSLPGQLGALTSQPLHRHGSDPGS

| SMILES | hERG current change (%, negative = inhibition) at 10uM [%] |
| --- | --- |
| CC(C)Cc1nnc(NC(=O)c2cc3c(s2)CCC3)s1 | 16.9 |
| O=C(C1CCN(c2nnnn2-c2ccccc2)CC1)N1CCN(c2ccccc2)CC1 | -33.9 |
| CCCc1cc(=O)[nH]c(N2CCN(Cc3ccc4c(c3)OCO4)CC2)n1 | -9.57 |
| c1nc(N2CCOCC2)c2c3c(sc2n1)CCCC3 | -7.14 |
| CC(=O)N1CCN(C(=O)C2(NC(=O)Nc3ccccc3Cl)CCCCC2)CC1 | 12.5 |
| O=C(NCc1n[nH]c(=S)n1-c1ccc(Cl)c(Cl)c1)c1ccco1 | 16.7 |
| Cc1ccc(CNC(=O)COC(=O)C2CCN(S(=O)(=O)c3cccs3)CC2)cc1 | -50.5 |
| O=c1n(-c2ccc(Br)cc2)cnn1-c1ncccc1[N+](=O)[O-] | -22.1 |
| O=C(O)c1ccc(COc2c(F)c(F)c(F)c(F)c2F)o1 | -1.09 |
| O=C(CBr)c1ccc([N+](=O)[O-])c(CS(=O)(=O)c2ccc(Cl)cc2)c1 | -2.19 |
| CC1CCCC(C)N1C(=O)CSc1nnnn1-c1cccc2c1CCCC2 (centres unmarked) | -15.3 |
| CCC1CN(C(=O)NCc2ccc(F)cc2)c2ccccc2O1 (centres unmarked) | -15.6 |
| CC1CCc2sc(C(=O)OC(C)C(=O)Nc3ncc(Cl)cc3Cl)cc2C1 (centres unmarked) | 4.96 |
| N#Cc1cccc(S(=O)(=O)NCC(=O)OCC(=O)NCc2ccccc2)c1 | 2.73 |
| O=C(NC1CCCC1)C(c1ccc(Cl)cc1)N1CCN(C2CCCCC2)CC1 (centres unmarked) | -59.3 |
| CC/C(=N\NS(=O)(=O)c1ccc(C)cc1)c1ccco1 | 9.65 |
| O=c1[nH]c(CN2CCN(c3ccccc3O)CC2)nc2scc(-c3ccccc3Cl)c12 | -5.68 |
| Cc1ccc(SCC(=O)OCC(=O)NC(C)c2ccc(F)cc2)cc1 (centres unmarked) | 6.96 |
| CN(C)/C=N/S(=O)(=O)c1cccn1-c1ncc(C(F)(F)F)cc1Cl | -5.99 |

| SMILES | hERG current change (%, negative = inhibition) at 10uM [%] |
| --- | --- |
| CN1C(=O)NC(NS(=O)(=O)c2ccc(N)cc2)(C(F)(F)F)C1=O (centres unmarked) | 31.7 |
| Cc1ccc(-n2nc3c(=O)n(CC(=O)NCc4ccccc4)nc(C)c3c2C)cc1 | 7.43 |
| OC(c1nc2ccccc2[nH]1)C(O)c1nc2ccccc2[nH]1 (centres unmarked) | 15.1 |
| CCCSC1=NN2CCCC(=O)N=C2S1 | 18 |
| O=C(NCCc1cn2ccsc2n1)C1CCCCC1 | -0.622 |
| COc1ccc(C2/C(=C(/O)c3ccccc3)C(=O)C(=O)N2c2ccccn2)cc1OC (centres unmarked) | 18.2 |
| O=C(c1cn(Cc2ccccc2F)c2ncccc12)C(F)(F)F | 16.6 |
| Cc1ccc(C)c(S(=O)(=O)Nc2ccc3oc(C)c(C(=O)O)c3c2)c1 | 9.25 |
| CC(=O)N1CCC2(CC1)CC(=O)c1cc(OCC(=O)N3CCC4(CC3)OCCO4)ccc1O2 | 18.5 |
| Cc1ccc(NC(=O)CN(C)C(=O)c2cccnc2Nc2cccc(C(F)(F)F)c2)cc1 | 6.71 |
| CN1CCN(C(=O)C2CCN(S(=O)(=O)c3ccccc3[N+](=O)[O-])CC2)CC1 | 5.28 |
| Cc1ccccc1Oc1nc2ccccn2c(=O)c1/C=C(\C#N)C(=O)Nc1c(C)n(C)n(-c2ccccc2)c1=O | 18.7 |
| COc1ccc(/C=N/NC(=O)Nc2cccc3nsnc23)cc1 | 4.86 |
| O=C(O)CCn1c(=O)[nH]c(=O)n(CCC(=O)O)c1=O | 21.5 |
| CCCCCCc1cc2cc(C(=O)Nc3ccccc3)c(=O)oc2cc1O | 0.167 |
| O=C(O)C1Nc2c(Cl)cc(Cl)cc2C2C=CCC12 (centres unmarked) | 19 |
| COc1cccc(N2CCN(C(=O)c3ccc(CS(=O)Cc4ccc(Cl)cc4)o3)CC2)c1 (centres unmarked) | -41.8 |
| COc1ccc(CN2CCN(Cc3ccccc3F)CC2)c(OC)c1.O=C(O)C(=O)O | -68.5 |
| COc1ccc(C(=O)Nc2nnc(Cc3ccc(OC)c(OC)c3)s2)cc1 | 13.2 |

| SMILES | hERG current change (%, negative = inhibition) at 10uM [%] |
| --- | --- |
| COc1ccc(/C=N/N=C2/NC(=O)C(c3ccccc3)S2)c(OC)c1 (centres unmarked) | 26.5 |
| COc1cccc(CNC(=O)CC2C(=O)NCCN2Cc2ccoc2)c1OC (centres unmarked) | 17.4 |
| C/C(=C/c1ccccc1)C(=O)N1CCC(C)CC1 | -2.42 |
| CCc1cc2cc3c(cc2nc1SCC(=O)Nc1c[nH]c(=O)[nH]c1=O)OCO3 | -0.909 |
| COc1ccc(Cc2nnc(NC(=O)Nc3ccccc3)s2)cc1OC | 15.3 |
| CC(C)CN1CCN(CCCc2ccccc2)C(CCO)C1 (centres unmarked) | -35.5 |
| CCN1CCN(C(=S)NCCc2ccccc2)CC1.O=C(O)C(=O)O | -15.1 |
| COc1cc(C2c3sc(=O)[nH]c3SC3C(=O)N(c4ccc(C)cc4)C(=O)C32)ccc1O (centres unmarked) | 1.86 |
| O=C(c1cc2ccccc2o1)N1CC=C(c2ccccc2)CC1 | 10.4 |
| Cc1ccccc1Oc1nc2c(c(=O)n(C)c(=O)n2C)n1C | 7.08 |
| COc1cccc(-c2nc(NCC3CCCO3)c3ccccc3n2)c1O (centres unmarked) | -21.2 |
| CN1C(=S)SC(C)(C)C1NO (centres unmarked) | 2.67 |
| Cc1ccc(S(=O)(=O)N2CCOCC2)cc1C(=O)OCC(=O)c1ccc[nH]1 | -4.46 |
| Cc1ccc(-c2nc(-c3ccccc3)no2)c(Cl)c1 | 2.36 |
| Cc1cccc2nc(CSc3nc4ccc([N+](=O)[O-])cc4[nH]3)cn12 | -4.2 |
| CCCCn1c(N)c(N(CCOC)C(=O)Cn2c(=O)oc3ccccc32)c(=O)[nH]c1=O | 6.43 |
| c1coc(CNc2nc3ccccc3n2CCN2CCOCC2)c1 | -33.2 |
| COCCNC(=O)c1cccc(OC2CCN(Cc3ccc(C(C)C)cc3)CC2)c1 | -70.7 |
